{"source": "patent US20060063236A1", "about": "(AEROVANCE, published 2006)", "binders": {"B1": {"name": "untagged IL-9RA/IL-4RA chimeric polypeptide (ligand)", "chain": "[about 120 residues not given here]HKCDITLQEIIKTLNSLTEQKTLCTELTVTDIFAASKNTTEKETFCRAATVLRQFYSHHEKDTRCLGATAQQFHRHKQLIRFLKRLDRNLWGLAGLNSCPVKEANQSTLENFLERLKTIMDEKDSKCSS"}}, "key": {"[1]": {"target": "T1, IL-9 receptor alpha chain (IL-9Rα) (human, UniProt Q01113 41-521)", "T1 sequence (looked up)": "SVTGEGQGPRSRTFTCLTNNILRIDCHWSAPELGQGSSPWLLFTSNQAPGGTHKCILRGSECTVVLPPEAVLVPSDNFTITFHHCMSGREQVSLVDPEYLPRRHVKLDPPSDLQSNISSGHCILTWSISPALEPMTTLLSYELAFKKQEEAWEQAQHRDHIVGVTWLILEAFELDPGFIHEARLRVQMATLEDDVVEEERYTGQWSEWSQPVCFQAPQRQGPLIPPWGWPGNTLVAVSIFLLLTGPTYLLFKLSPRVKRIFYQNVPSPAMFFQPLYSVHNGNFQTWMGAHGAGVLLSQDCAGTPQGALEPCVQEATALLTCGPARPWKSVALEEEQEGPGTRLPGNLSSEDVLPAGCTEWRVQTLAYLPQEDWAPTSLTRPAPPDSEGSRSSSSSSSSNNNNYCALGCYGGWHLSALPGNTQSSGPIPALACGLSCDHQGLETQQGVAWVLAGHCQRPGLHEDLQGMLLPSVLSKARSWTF", "assay": "cell-based or functional assay"}, "[2]": {"target": "T2, IL-4 receptor alpha chain (IL-4Rα) (human, UniProt P24394 26-825)", "T2 sequence (looked up)": "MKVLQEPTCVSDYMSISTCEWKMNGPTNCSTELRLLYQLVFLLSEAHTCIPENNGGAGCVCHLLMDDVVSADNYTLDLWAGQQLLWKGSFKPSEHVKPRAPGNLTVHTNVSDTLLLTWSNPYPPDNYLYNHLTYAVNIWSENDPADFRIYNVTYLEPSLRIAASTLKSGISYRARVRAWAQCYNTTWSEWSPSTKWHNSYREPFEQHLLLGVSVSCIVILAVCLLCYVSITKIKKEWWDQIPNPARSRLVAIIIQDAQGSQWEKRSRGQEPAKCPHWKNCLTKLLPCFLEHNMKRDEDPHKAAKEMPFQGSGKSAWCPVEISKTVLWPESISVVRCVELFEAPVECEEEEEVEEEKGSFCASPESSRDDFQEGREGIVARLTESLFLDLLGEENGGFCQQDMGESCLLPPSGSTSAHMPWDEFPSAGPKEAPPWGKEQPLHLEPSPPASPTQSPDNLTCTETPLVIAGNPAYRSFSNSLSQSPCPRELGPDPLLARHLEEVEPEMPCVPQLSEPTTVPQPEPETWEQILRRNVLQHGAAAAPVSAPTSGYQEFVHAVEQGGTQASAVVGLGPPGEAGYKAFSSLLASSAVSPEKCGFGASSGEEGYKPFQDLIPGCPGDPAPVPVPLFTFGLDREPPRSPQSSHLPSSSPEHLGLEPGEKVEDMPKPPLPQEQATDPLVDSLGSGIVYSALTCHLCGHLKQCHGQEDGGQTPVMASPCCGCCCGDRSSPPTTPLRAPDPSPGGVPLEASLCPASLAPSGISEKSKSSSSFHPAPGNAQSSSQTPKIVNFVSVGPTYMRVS", "assay": "cell-based or functional assay"}}, "data": [{"binder": "B1", "values": [{"measurement": "IC50, inhibition of IL-9 induced Mo7e cell proliferation (AlamarBlue)", "setting": "[1]", "value": 29.6, "unit": "nM"}, {"measurement": "IC50, inhibition of IL-4 induced TF-1 cell proliferation (AlamarBlue)", "setting": "[2]", "value": 0.624, "unit": "nM"}]}]}
